The list shows a part of the results.

From publication PMC12040169 (PLOS Biology, 2025) come the findings set out here.

The subject of the assay is T1, C. trachomatis L2/434/Bu expressing GFP (CTL2-GFP).
T1 construct: L2/434/Bu GFP intracellular growth in HeLa cells
On the set-up: species or system HeLa; C. trachomatis total inclusion area by high-content imaging, normalised to DMSO. Particulars: total inclusion area; 28.5 h, 10 µM; inhibitor. The gist of the method: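 After bulk GFP and resorufin fluorescence reads, cells were fixed, stained with Hoechst and imaged by high-content microscopy. Inclusion area and number (GFP) stood in for chlamydial growth, nuclei count (Hoechst) for host cell viability. MICs were derived as for the bulk readout.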
With `CC(C)(CN)CN(Cc1ccccc1Br)C(=O)NCc1ccc(F)cc1` [CBK002469C], the “% of control remaining” value was found to be 75.6628.
For the compound `Cc1noc(C)c1CN1CCC(c2ccccc2)CC1` [CBK306001], the “% of control remaining” value came to 54.4395.
In the case of `CC(C)(C)OC(=O)N1CCC[C@@H]([C@H](O)c2nccs2)C1` [CBK284283], the “% of control remaining” value worked out at 62.6801.
The result for `Cc1c(C(=O)O)cccc1N1C(=O)c2ccc([N+](=O)[O-])cc2C1=O` [CBK262724] reads 82.3995.
`CS(=O)(=O)N(CC(=O)Nc1ccc(S(=O)(=O)N2CCCCCC2)cc1)c1ccc(F)cc1` [CBK266932]: the “% of control remaining” value came to 110.413.
As for `Cc1cc(Cl)cc(Br)c1OCCNCCN1CCOCC1` [CBK268615G], the “% of control remaining” value worked out at 74.3443.
As for `Cn1ccnc1C1(O)C2CCCC1CN(Cc1ccccc1F)C2` (stereo not shown) [CBK285206], the “% of control remaining” value turned out to be 102.172.
Consider `Cn1ccc(C(=O)NC(Cc2cccs2)c2nccs2)n1` (stereo not shown) [CBK285135], for which the “% of control remaining” value is 76.9276.
With `Cn1/c(=N\C(=O)c2cccs2)sc2cc(Br)ccc21` [CBK018873], the “% of control remaining” value is 92.0747.
On to `COc1ccc2c(c1)C1(CC(=O)N(Cc3ccccc3)C1=O)C(=O)N2Cc1ccccc1` (stereo not shown) [CBK075228], for which the “% of control remaining” value is 107.827.
Regarding `O=C(O)COc1ccc(NC(=O)c2ccc3c(c2)C(=O)N(C2CCCCC2)C3=O)cc1` [CBK266009], the “% of control remaining” value stood at 145.95.
Take `CCN(CC)C(=O)N1CCN(Cc2cccc(OC)c2)C[C@@H]1C` [CBK284268]: the “% of control remaining” value stood at 70.4612.
For `COc1cc(NC(=O)c2ccccc2)c(C(=O)O)cc1OC` [CBK227754], the “% of control remaining” value was 86.303.
As for `O=C(CN1CCCCC1)Nc1sc2c(c1C(=O)Nc1ccccc1)CCCC2` [CBK267974], the “% of control remaining” value is listed as 83.0002.
Turning to `CCC(/C=C1\Sc2ccccc2N1CCCS(=O)(=O)[O-])=C\c1oc2ccc(OC)cc2[n+]1C` [CBK261080], the “% of control remaining” value was determined as 87.6712.
For the compound `COC(=O)c1ccc(NC(=S)NC(=O)c2cncc(Br)c2)cc1` [CBK099257], the “% of control remaining” value was 94.8788.
Regarding `CC(=O)Oc1cccc(NC(=O)CC2Sc3ccccc3NC2=O)c1` (stereo not shown) [CBK261792], the “% of control remaining” value is reported as 102.731.
Turning to `COc1ccc2c(c1OC)C(=O)N1c3ccccc3COC21` (stereo not shown) [CBK109960], the “% of control remaining” value worked out at 46.7167.
Turning to `Cc1ccc(-c2csc(NC(=O)CN3C(=O)CCC3=O)n2)cc1` [CBK287346], the “% of control remaining” value is reported as 96.2332.
Take `Cc1ccc(NC(=O)CSc2nnc(C(O)c3ccccc3)n2-c2ccccc2)c(Br)c1` (stereo not shown) [CBK267421]: the “% of control remaining” value is listed as 104.992.
As to `Cc1cc(C[C@@H]2COC[C@H]2NCc2ccccc2Cl)on1` [CBK282969], the “% of control remaining” value was determined as 108.538.
On to `Cc1nc(CC(=O)Nc2nn(C)c3cccc(N4CCOCC4)c23)cs1` [CBK306627], for which the “% of control remaining” value is 90.993.
In the case of `COc1ccccc1CNCc1ccc(CNC(=O)OC(C)(C)C)cc1` [CBK056702], the “% of control remaining” value is listed as 66.6623.
Take `O=C(Cn1cc(-c2ccc(CN3CCOCC3)cc2)nn1)NCc1cccc(C(F)(F)F)c1` [CBK165803]: the “% of control remaining” value was determined as 82.8239.
`CC(C)CC(C(=O)Nc1ccc(Br)cc1)N1C(=O)c2ccccc2C1=O` (stereo not shown) [CBK264253]: the “% of control remaining” value was determined as 89.6688.
On to `NC(=O)c1ccc(-c2cc(Nc3ccc(CCO)cc3)ncn2)cc1` [CBK090773], for which the “% of control remaining” value was found to be 110.118.
Turning to `Cc1ccc(S(=O)(=O)N(CC(=O)Nc2cccnc2)c2cccc([N+](=O)[O-])c2)cc1` [CBK266404], the “% of control remaining” value is on record as 67.3305.
The result for `CN(C)CCN1CCN(c2nc(-c3ccc(S(C)(=O)=O)cc3)cnc2N)CC1` [CBK063457] reads 73.1974.
The result for `N#Cc1nonc1NCn1nnc2ccccc21` [CBK062650] reads 109.79; that for `CNC(=O)c1sc2ccccc2c1C1CCN(C(=O)CCN(C)c2ccc(F)cc2)C1` (stereo not shown) [CBK285878], 106.842; that for `OCC1CCCCC1NCCCC(c1ccc(F)cc1)c1ccc(F)cc1` (stereo not shown) [CBK015830C], 6.956.
The result for `O=C(c1cc(-c2ccccn2)n[nH]1)N1CCC(c2ccccc2)C1` (stereo not shown) [CBK281852] reads 100.594.
Turning to `CN1CCCC(OC(=O)C2CCCCC2)C1` (stereo not shown) [CBK090234], the “% of control remaining” value is recorded as 24.2158.
`Cn1cc(C2CNCCN2C(=O)CCCc2csc3ccccc23)cn1` (stereo not shown) [CBK304274C]: the “% of control remaining” value came to 118.123.
The result for `COc1cc(C(=O)N2CCN(S(=O)(=O)c3ccccc3[N+](=O)[O-])CC2)cc(OC)c1OC` [CBK264182] reads 113.625; that for `Cc1cc2c(s1)c1cnn(CC(=O)N(C)C)c(=O)c1n2C` [CBK284231], 86.5629.
For `O=C(Nc1cnc(-c2cccc(C(F)(F)F)c2)c(-c2cccnc2)n1)c1cc(-c2ccco2)n[nH]1` [CBK036878], the “% of control remaining” value was 104.845.
In the case of `O=C(N/N=C/c1cc(Br)cc(Br)c1O)C(Oc1ccccc1)Oc1ccccc1` [CBK262164], the “% of control remaining” value turned out to be 106.399.
As for `COc1ccc(Nc2nc(-c3cccnc3)cs2)c(OC)c1` [CBK126814], the “% of control remaining” value is 92.1057.
As to `OCC1CCCN1c1nc(-c2ccc(Oc3ccccc3)cc2)cn2ccnc12` (stereo not shown) [CBK066713], the “% of control remaining” value was determined as 120.317.
Turning to `O=C(O)c1cccc(-n2c(S)nnc2-c2ccc3ccccc3n2)c1` [CBK265810], the “% of control remaining” value amounted to 72.2318.
With `Cc1nc(C2CN(Cc3c(Cl)ccc4cccnc34)CCO2)no1` (stereo not shown) [CBK305317], the “% of control remaining” value stood at 31.8644.
The result for `CC1(C)CC(=NNC(=O)CCc2cc(C(C)(C)C)c(O)c(C(C)(C)C)c2)CC(C)(C)N1` [CBK261952] reads 74.7582; that for `COc1cc(NC(=O)N2CCN(CCc3ccccc3)CC2)cc(OC)c1OC` [CBK158933], 116.352; that for `O=C(O)C1CC(C(=O)O)C(C(=O)O)CC1C(=O)O` (stereo not shown) [CBK261332], 104.433.
With `CSc1nccc(N2CCC(NCCn3c(C)cc(C)nc3=O)CC2)n1` [CBK307070], the “% of control remaining” value was found to be 84.0762.
As for `COc1cccc2c1cc(C(=O)NCCn1ccnc1C)n2C` [CBK283267], the “% of control remaining” value is 93.9325.
Turning to `O=C(NCCn1c(=O)oc2ccccc21)C(c1cccs1)c1cccs1` [CBK286198], the “% of control remaining” value amounted to 107.785.
The result for `CCC1C=CCN1S(=O)(=O)c1cccc(C(=O)NCc2cnn(C)c2)c1` (stereo not shown) [CBK307536] reads 55.6992; that for `COc1cc(/C=C/c2[nH]c(=O)[nH]c(=O)c2[N+](=O)[O-])cc(Br)c1OCC(=O)O` [CBK267977], 96.8368.
In the case of `Cc1ccsc1C(=O)N1CCC(c2n[nH]c3ncccc23)CC1` [CBK284910], the “% of control remaining” value worked out at 113.645.
For the compound `Cn1c(C2CC2)nc2c1CCN(Cc1cn3cc(Cl)ccc3n1)C2` [CBK305314], the “% of control remaining” value came to 99.1116.
`CCCOc1ccc(S(=O)(=O)NCc2ccc3c(c2)OCO3)c2ccccc12` [CBK269059]: the “% of control remaining” value is on record as 71.6733.
Consider `NC(=O)C1(N2CCCCC2)CCN(CC(=O)Nc2ccc(Oc3ccccc3)cc2)CC1` [CBK265774], for which the “% of control remaining” value was determined as 102.201.
The result for `COc1ccc(OC)c(NC(=O)CNC(=O)c2ccccc2F)c1` [CBK267846] reads 117.064; that for `CN1CCC(N(C)Cc2ccc3c(c2)OCO3)CC1` [CBK261564], 98.9154; that for `COc1cccc(Nc2cc(-c3ccco3)ncn2)c1OC` [CBK090727], 98.0713.
The result for `N#Cc1cccc(S(=O)(=O)Nc2ccc(-c3nnn[nH]3)cc2)c1` [CBK155427] reads 87.7536.
Take `Cc1cc(C)n(CCCNC(=O)Cc2csc(N3CCCC3=O)n2)n1` [CBK305708]: the “% of control remaining” value is listed as 47.4803.
The result for `COC(=O)Nc1ccc(S(=O)(=O)N2CCCC(C(=O)Nc3cccc(C(F)(F)F)c3)C2)cc1` (stereo not shown) [CBK265248] reads 70.7936; that for `O=C(O)C1CCCCC1C(=O)N1CCN(Cc2cccc(Cl)c2)CC1` (stereo not shown) [CBK270330], 62.3985.
With `CC(C)(C)c1ccc(-c2nc(Nc3cccc(C(=O)O)c3)c3ccccc3n2)cc1` [CBK265229C], the “% of control remaining” value is given as 86.4564.
Regarding `CC(NC(=O)N1CCCCC1CO)c1ccccc1` (stereo not shown) [CBK155988], the “% of control remaining” value is listed as 107.664.
Take `CCOc1ccccc1Nc1nc(N)nc(CN2CCCCC2C)n1` (stereo not shown) [CBK266548]: the “% of control remaining” value was found to be 109.901.
Take `COc1cc(C(c2c(C)n(C)n(-c3ccccc3)c2=O)c2c(C)n(C)n(-c3ccccc3)c2=O)ccc1O` [CBK261690]: the “% of control remaining” value is listed as 90.662.
With `Cc1ncsc1CCC(=O)NCC1CCN(c2ccccc2F)C1` (stereo not shown) [CBK304675], the “% of control remaining” value was 39.323.
`Cc1c(Cl)cccc1S(=O)(=O)Nc1ccc(C(=O)O)cc1` [CBK034050]: the “% of control remaining” value came to 78.6021.
For the compound `CC(C)(C)OC(=O)N(Cc1cccs1)S(C)(=O)=O` [CBK019338], the “% of control remaining” value is given as 63.2111.
For the compound `CC(C)OCC(O)C[S+]([O-])Cc1ccccc1` (stereo not shown) [CBK261761], the “% of control remaining” value came to 107.28.
With `c1ccc(Nc2nc(-c3ccco3)cn3ccnc23)cc1` [CBK037947], the “% of control remaining” value was 134.565.
Regarding `Clc1ccccc1CSc1nnc2c(n1)OC=Nc1ccccc1-2` [CBK265085], the “% of control remaining” value stood at 101.359.
As to `O=S(=O)(Nc1nncs1)c1ccccc1` [CBK045489], the “% of control remaining” value is given as 104.935.
As to `CCOc1ccc(Nc2cc(Cl)nc(N)n2)cc1` [CBK288069], the “% of control remaining” value is recorded as 54.1911.
`CC(C)(CN)CN(Cc1cccc2ccccc12)C(=O)NC1C[C@H]1c1ccccc1` (stereo partly shown) [CBK000490C]: the “% of control remaining” value is listed as 65.4104.
The result for `Cc1nnc(CN(C)C2CCN(Cc3ccc4c(c3)CCC4)C2)n1C` (stereo not shown) [CBK304450] reads 85.1277.
For `O=C(CN1CCC(C(O)C(=O)NC2CC2)CC1)Nc1cc(Cl)ccc1F` (stereo not shown) [CBK305477], the “% of control remaining” value was found to be 61.1851.
In the case of `COc1ccc(C2c3ccccc3C[N+]3(C)CCCN23)cc1` (stereo not shown) [CBK008769], the “% of control remaining” value was 129.947.
Consider `O=C(CCc1ccccc1)N1CCCC1c1n[nH]cc1-c1ccncc1` (stereo not shown) [CBK283436], for which the “% of control remaining” value is reported as 120.185.
The result for `CN1CCN(C(=O)CNS(=O)(=O)c2cc(F)c(Br)cc2F)CC1` [CBK034481] reads 77.0197.
